# In patent US20220064595A1 (SHENZHEN BEIKE BIOTECHNOLOGY, published 2022):
# B1: co-peptide chain Y2 (other)
# chain: DVQLQASGGGLVQAGDSLRLSCAASGRTFSTYNMGWFRQAPGKDREFVAAIMWSGGSTYYADSVKGRFTISKDNAKNTVYLQMNSLKPEDTAVYFCWSTDDYGVDSWGQGTQVTVSSGGGGS[sequence of about 120 residues omitted]
# notes: A 2A signal peptide is added in front of it for expression; also called co-peptide chain of RaceCar-3
# B2: co-peptide chain Y5 (other)
# chain: QLLESGGGLVQPGGSLRLSCAASGYRISSDDMSWVRQAPGKGLEWVSTIYETDGSTYYADSVKGRFTISRDNSKNTLYLQMNSLRAEDTAVYYCARANFYSEQPFQFWGQGTLVTVSSGGGGS[sequence of about 120 residues omitted]
# notes: A 2A signal peptide is added in front of it for expression; also called co-peptide chain of RaceCar-10 and RaceCar-14
# Experiments:
# main peptide chain X2 = molecular target: T1, main peptide chain X2; test: flow cytometry with anti-hIL-15 PE on RaceCar-infected NK92 and T cells (legend of FIG. 4)
# T1 construct: Membrane chain of a chimeric antigen receptor: AntiMHC/GP100-VHH, IL15Rαsushi, CD8 transmembrane domain, 41BB + CD3ζ; Expressed on NK92 and T cells; also called main peptide chain of RaceCar-2 and RaceCar-3
# T1 sequence (chain, as listed by the source): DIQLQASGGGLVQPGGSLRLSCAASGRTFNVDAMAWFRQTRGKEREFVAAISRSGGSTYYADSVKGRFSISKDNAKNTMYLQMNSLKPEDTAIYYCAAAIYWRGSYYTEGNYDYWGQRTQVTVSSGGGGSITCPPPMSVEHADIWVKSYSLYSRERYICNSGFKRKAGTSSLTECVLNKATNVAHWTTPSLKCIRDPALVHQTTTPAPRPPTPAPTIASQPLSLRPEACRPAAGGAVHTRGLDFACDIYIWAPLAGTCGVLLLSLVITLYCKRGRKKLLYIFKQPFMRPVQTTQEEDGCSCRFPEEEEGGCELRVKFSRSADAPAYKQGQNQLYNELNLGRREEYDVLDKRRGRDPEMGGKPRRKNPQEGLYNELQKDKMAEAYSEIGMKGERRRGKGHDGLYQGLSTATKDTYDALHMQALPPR
# Description: (§1) 1.) RaceCar-1-NK92, RaceCar-2-NK92, RaceCar-3-NK92, RaceCar-4-NK92, RaceCar-5-NK92, RaceCar-6-NK92, RaceCar-7-NK92, RaceCar-9-NK92, RaceCar-10-NK92, RaceCar-11-NK92, RaceCar-12-NK92, RaceCar-13-NK92, RaceCar-14-NK92, RaceCar-1-T, RaceCar-2-T, RaceCar-3-T, RaceCar-4-T, RaceCar-5-T, RaceCar-6-T, RaceCar-7-T, RaceCar-9-T, RaceCar-10-T, RaceCar-11-T, RaceCar-12-T, RaceCar-13-T, RaceCar-14-T cells obtained in example 4, are suspended in PBS (phosphate buffered saline) respectively, the concentration of cells is controlled to be in the range of 1*10\hat{ }6/ml.
# (§2) 2.) 1.5 μl of anti-hIL-15 PE conjugates is (R&D, IC2471P) is added into 200 μl of treated cells and incubates on ice for 30 minutes. The supernatants are removed by centrifugation and the cells are re-suspended by adding an equal amount of PBS (phosphate buffer saline).
# (§3) 3.) FACS analysis to verify RaceCar expressed on cell surface (FIG. 4). The horizontal coordinate in the figure represents the IL15 level, the T cell and the NK92 are not infected and used as negative control and there is no expression of IL15 on the surface detected. The expression of different levels of IL15 can be detected on the surfaces of T cells and NK92 cells infected with RaceCar virus. […] Meanwhile, IL15 is on a main peptide chain of RaceCar -12 and RaceCar-13, and can be directly detected.
# main peptide chain X7 = molecular target: T2, main peptide chain X7; test: as above
# T2 construct: Membrane chain of a chimeric antigen receptor: extracellular region of PD1, IL15Rαsushi, CD8 transmembrane domain, 41BB + CD3ζ; Expressed on NK92 and T cells; also called main peptide chain of RaceCar-10
# T2 sequence (chain, as listed by the source): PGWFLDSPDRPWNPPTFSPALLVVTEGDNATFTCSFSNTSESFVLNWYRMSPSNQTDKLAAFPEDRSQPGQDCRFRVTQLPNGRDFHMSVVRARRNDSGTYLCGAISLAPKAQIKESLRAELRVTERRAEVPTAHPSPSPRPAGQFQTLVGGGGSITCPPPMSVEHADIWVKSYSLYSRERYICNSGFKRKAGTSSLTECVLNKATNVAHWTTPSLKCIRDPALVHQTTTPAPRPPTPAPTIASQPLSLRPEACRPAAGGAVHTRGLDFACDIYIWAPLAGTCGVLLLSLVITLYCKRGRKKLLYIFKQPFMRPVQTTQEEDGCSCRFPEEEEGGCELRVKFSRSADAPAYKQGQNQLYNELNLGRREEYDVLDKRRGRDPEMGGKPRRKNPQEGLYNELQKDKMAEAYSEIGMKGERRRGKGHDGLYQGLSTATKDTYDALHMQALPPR
# Description: as §1, §2, §3
Binder,binding result (main peptide chain X2),binding result (main peptide chain X7)
B1,binds,
B2,,binds
